The RNAGym collection of RNA variant scans (doi:10.1093/nar/gkz1192)
The source gives no read counts; variants with many changes may rest on few reads.

B1: CPEB3 Ribozyme (parent)
chain: UAACAGGGGGCCACAGCAGAAGCGUUCACGUCGCAGCCCCUGUCAGAUUCUGGUGAAUCUGCGAAUUCUGCUGUAUAUCUC

Variants of: B1
Assay: self-cleavage, relative activity (ratio to wild type); higher = more cleavage; in vitro, sequencing
Outline: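 Relative activity was defined as the cleaved/total read fraction for a variant divided by the same fraction for the unmutated ribozyme. CPEB3 self-cleaving ribozyme libraries were made by rounds of error-prone PCR, barcoded, and transcribed in vitro with T7 RNA polymerase for 5 hours at 37°C, and cleavage ran through transcription plus a 15 min DNase I step before EDTA. Illumina sequencing of template-switched reverse transcripts gave the reads, and DNA sequencing mapped the barcodes. Averages come from three batches, using variants with at least 5 reads.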

With UAACAGGGGGCCACAGCAGAAGCGCACACGUCGCAGCCCCUGUCAAAUUCUGGUGAAUCUGCGAAUUCCGCUGUAUAUCUC as the variant, how does the self-cleavage read?
The self-cleavage was 0.38.

With UAACAGGGGGCCACAGCAGAAGCGCUCACGUCGCAACCCCUGACAGAUUCUGGUGAAUCUGCGAAUACUGCCGUAUAUCUC as the variant, how does the self-cleavage read?
The self-cleavage was 0.05.

For UAACAGGGGGCCACAGCAGAAGCGCUCACGUCGCAGCCCCUGUCAUAUUCUGGUGAAUCUGCGAAUUCAGCUGUAUAUCUC, which self-cleavage is on record?
Its self-cleavage is 0.11.

For UAACAGGGGGCCACAGCAGAAGCGCUGACGUCGCAGCCCCUGUCAGAUUCGGGUGAAUCUGCGAACUCUGCUGUAUAUCUC, which self-cleavage is on record?
The self-cleavage was 0.17.

With UAACAGGGGGCCACAGCAGAAGCGCACACGUCGCAGCCCCUGUCAGAUUCUGGUGAAUCUGCGAUUUCUGCUGUAUAUCCC as the variant, how does the self-cleavage read?
Its self-cleavage is 0.38.

Which self-cleavage does the source give for UAACAGGGGGCCACAGCAGAAGCGCUCACGUCGCAGCCCCUGUCAGAUUCUGGUGAAUCUGCGAAUUCUGCUAUAUAUCCC here?
The self-cleavage was 0.14.

With UAACAGGGGGCCACAGCAGAAGCGCUCACGUCGCACCCCCUGUCAGAUUCUGGUGAACCUGCGGAUUCUGCUGUAUAUCUC as the variant, how does the self-cleavage read?
Its self-cleavage is 0.12.

With UAACAGGGGGCCACAGCAGAAGCGCUCACGUCGCAGCCUCUGCCAGAUUCUGGUGAAUCUGCGAAAUCUGCUGUAUAUCUC as the variant, how does the self-cleavage read?
The self-cleavage was 0.15.

For UAACAGGGGGCCACAGCAGAAGCGCCCACGUCGCAGCCCCUGUCAGACUCUGGUGAAUCUGCGAAUUCGGCAGUAUAUCUC, which self-cleavage is on record?
Its self-cleavage is 0.04.

With UAACAGGGGGCCACAGCAGAAGCGCUCACGUCGCAGCCCCUGUCAGAUUCUGGUGAAUCUGCGAAUUCUCCUGUACAUCUC as the variant, how does the self-cleavage read?
Its self-cleavage is 0.09.

For UAACAGGGGGCCACAGCAGAAGCGCUCACGUCGCAGACCCCGUCAGAUCCUGGUGAAUCUGCGUAUUCUGCUGUAUAUCUC, which self-cleavage is on record?
Its self-cleavage is 0.1.

With UAACAGGGGGCCACAGCAGAAGCGCCCACGUCGCUGCCCCUGUCAGAUUCUGGUGAAUCUGCGAAAUCUGCUGUAUCACUC as the variant, how does the self-cleavage read?
The self-cleavage was 0.11.

With UAACAGGGGGCCACAGCAGAAGCGCACACGUCGCAGCCCCUGUCAUAUUUUGGUGAAUCUGCGAACUCUGCUGUAUAUCUC as the variant, how does the self-cleavage read?
Its self-cleavage is 0.05.

For UAACAGGGGGCCACAGCAGAAGCGCUCACGUUGCAGCCCCUGUCAGAUUCUGGUGAAUCUGCGAACUCUGCUGUAUAUCUC, which self-cleavage is on record?
The self-cleavage was 0.12.

Which self-cleavage does the source give for UAACAGGGGGCCACAGCAGAAGCGCUCACGUAGCAGCCCCCGUCAGAUUCCGGCGAAUCUGCGAAUUCUGCUGUAUAUCUC here?
Its self-cleavage is 0.42.

For UAACAGGGGGCCACAGCAGAAGCGCUCAGGUCGCAGCCCCUAUCAGAUUCUGGUGAAUCUGCGAAUUCUGCUGUAUACCUC, which self-cleavage is on record?
Its self-cleavage is 0.24.

With UAACAGGGGGCCACAGCAGAAGCGCUUACGUCGCAGCCCCUGUCUGUUACUGGUGAAUCUGCGAAUUCAGCUGUAUAUCUC as the variant, how does the self-cleavage read?
The self-cleavage was 0.07.

With UAACAGGGGGCCACAGCAGAAGCGCUCACGUCGCAGCCCCUGUCAGAUUCUGGUGAAUUUGCGUAUUCUGCCGUAUAUCUC as the variant, how does the self-cleavage read?
The self-cleavage was 0.1.

Which self-cleavage does the source give for UAACAGGGGGCCACAGCAGAAGCGCUCACGUCGCAGCUCCUGUCAGAUUCUGGUGAAUCUGCGAACUCUGCUGUAUAUCUC here?
Its self-cleavage is 0.41.

For UAACAGGGGGCCACAGCAGAAGCGCUCACGUCGCAGCCCAUGUCAGAUCCUGGUGGAUCUGCGAAUUCUGCUGUAUGUCUC, which self-cleavage is on record?
The self-cleavage was 0.22.

With UAACAGGGGGCCACAGCAGAAGCGCUCACGUCUCAGCCCCUGUCAGAUUCUGGUGAAUCUGCGAAUACUGCUGUAUAUCUC as the variant, how does the self-cleavage read?
Its self-cleavage is 0.1.

With UAACAGGGGGCCACAGCAGAAGCGCCCACGUCGCAGCCCCUGUCAGAUUCAGGUGAAUCUGCGAAUUCUGCUGUAUAUCUC as the variant, how does the self-cleavage read?
The self-cleavage was 0.1.

With UAACAGGGGGCCACAGCAGAAGCGCUCACGUCGUAUCCCCUGUCGGACUCUGGUGAAUCCGCGAAUUCUGCUGUACAUCUC as the variant, how does the self-cleavage read?
Its self-cleavage is 0.05.

Which self-cleavage does the source give for UAACAGGGGGCCACAGCAGAAGCGCUUACGUCGCAGCCCCUGUCAGAUUCUGGUGAAUCUGCGAAUUCUGCCGUAUAUCUC here?
The self-cleavage was 0.14.

Which self-cleavage does the source give for UAACAGGGGGCCACAGCAGAAGCGCACACGUCGCAGCCCCUGUCAGAUUCUGGCGAAUCUGCGAAUUCUGCUGUAUAUCUC here?
Its self-cleavage is 0.32.

Which self-cleavage does the source give for UAACAGGGGGCCACAGCAGAAGCGCCCACGGCGCAGCCCCUGUCAGAUUCUGGUGGAUCUGCGAUUUCUGCUGUGUAUCUC here?
Its self-cleavage is 0.06.

Which self-cleavage does the source give for UAACAGGGGGCCACAGCAGAAGCGCCCACGUCGCAGCCCCUGAAAGAUUCUGGUGAUUCUGCGAAUUCUGCUGUAUAUCUC here?
Its self-cleavage is 0.3.

Which self-cleavage does the source give for UAACAGGGGGCCACAGCAGAAGCGCUCACGUCGCAGUCCCUGUAAGAUUCUGGUGAAUCUGCGAAUUCCGCUGUAUAUCUC here?
The self-cleavage was 0.09.

Which self-cleavage does the source give for UAACAGGGGGCCACAGCAGAAGCGCUCACGUCGCAGCCCCUGUCAAAUUCUGGUGAAUCUGCGAAUUCUGGUGUAUAUCUC here?
The self-cleavage was 0.1.

For UAACAGGGGGCCACAGCAGAAGCGCUCACGUCGCAGCCUCCGACAGAUUCUGGUGAAUCUGCGAAUUCUGCUGUAUAUCUC, which self-cleavage is on record?
The self-cleavage was 0.23.

With UAACAGGGGGCCACAGCAGAAGCGCUCACGUCGCAGCUCCUGCCAGAUUCUGGUGAAUCUGCGAAUUCUGCUGUACAUCUC as the variant, how does the self-cleavage read?
Its self-cleavage is 0.34.

With UAACAGGGGGCCACAGCAGAAGCGCUCACGUCGCAGCCCCUGUCAAAUUCUGGUGAAUCUGCGAAUUCUGCUGUACACCUC as the variant, how does the self-cleavage read?
Its self-cleavage is 0.08.

Which self-cleavage does the source give for UAACAGGGGGCCACAGCAGAAGCGCUCACGUCGCAGCCCCUGUCAGAUUCUGGUGAAUCUGCGAAUUCUGAUGUAUACCUC here?
The self-cleavage was 0.08.

With UAACAGGGGGCCACAGCAGAAGCGCUCACGUCGCAGUCCCUGUCAGAUUCUGAUGAAUCUGCGAAUUCUGCAGUAUAUCUC as the variant, how does the self-cleavage read?
Its self-cleavage is 0.06.
